Experimental data reported in publication PMC9911399, “Two distinct binding modes provide the RNA-binding protein RbFox with extraordinary sequence specificity”.
Residue numbers refer to the chain shown, from its start. The list shows a part of the results.

B1: UCCUGCG (DNA:RNA)
RNA: GGGAGACCGGAAUUCAGAUUGUCCUCCUGCGUUAAAUCCCGUCGUAGCCACCA
DNA 1: CAATCTGAATTCCGGTCTCCC
DNA 2: TGGTGGCTACGACGGGATT
B2: GGACCAU (DNA:RNA)
RNA: GGGAGACCGGAAUUCAGAUUGUCCGGACCAUUUAAAUCCCGUCGUAGCCACCA
DNA 1: CAATCTGAATTCCGGTCTCCC
DNA 2: TGGTGGCTACGACGGGATT
B3: UGACCUC (DNA:RNA)
RNA: B2 RNA with G25U, A30U, U31C
DNA 1: CAATCTGAATTCCGGTCTCCC
DNA 2: TGGTGGCTACGACGGGATT
B4: UAUUCAC (DNA:RNA)
RNA: B2 RNA with G25U, G26A, A27U, C28U, U31C
DNA 1: CAATCTGAATTCCGGTCTCCC
DNA 2: TGGTGGCTACGACGGGATT
B5: ACCUAAA (DNA:RNA)
RNA: B1 RNA with U25A, G29A, C30A, G31A
DNA 1: CAATCTGAATTCCGGTCTCCC
DNA 2: TGGTGGCTACGACGGGATT
B6: UUACUCA (DNA:RNA)
RNA: B2 RNA with G25U, G26U, C29U, A30C, U31A
DNA 1: CAATCTGAATTCCGGTCTCCC
DNA 2: TGGTGGCTACGACGGGATT
B7: CCCACUA (DNA:RNA)
RNA: B1 RNA with U25C, U28A, G29C, C30U, G31A
DNA 1: CAATCTGAATTCCGGTCTCCC
DNA 2: TGGTGGCTACGACGGGATT
B8: AGGCUCG (DNA:RNA)
RNA: B2 RNA with G25A, A27G, C29U, A30C, U31G
DNA 1: CAATCTGAATTCCGGTCTCCC
DNA 2: TGGTGGCTACGACGGGATT
B9: GGAGUGC (DNA:RNA)
RNA: B2 RNA with C28G, C29U, A30G, U31C
DNA 1: CAATCTGAATTCCGGTCTCCC
DNA 2: TGGTGGCTACGACGGGATT
B10: AACCGAA (DNA:RNA)
RNA: B2 RNA with G25A, G26A, A27C, C29G, U31A
DNA 1: CAATCTGAATTCCGGTCTCCC
DNA 2: TGGTGGCTACGACGGGATT
B11: AGUUAGU (DNA:RNA)
RNA: B2 RNA with G25A, A27U, C28U, C29A, A30G
DNA 1: CAATCTGAATTCCGGTCTCCC
DNA 2: TGGTGGCTACGACGGGATT
B12: UGAGGCG (DNA:RNA)
RNA: B1 RNA with C26G, C27A, U28G
DNA 1: CAATCTGAATTCCGGTCTCCC
DNA 2: TGGTGGCTACGACGGGATT
B13: UACGCUG (DNA:RNA)
RNA: B1 RNA with C26A, U28G, G29C, C30U
DNA 1: CAATCTGAATTCCGGTCTCCC
DNA 2: TGGTGGCTACGACGGGATT
B14: GCCGGAU (DNA:RNA)
RNA: B2 RNA with G26C, A27C, C28G, C29G
DNA 1: CAATCTGAATTCCGGTCTCCC
DNA 2: TGGTGGCTACGACGGGATT
B15: AAAGGCU (DNA:RNA)
RNA: B2 RNA with G25A, G26A, C28G, C29G, A30C
DNA 1: CAATCTGAATTCCGGTCTCCC
DNA 2: TGGTGGCTACGACGGGATT
B16: AUGAAGG (DNA:RNA)
RNA: B1 RNA with U25A, C26U, C27G, U28A, G29A, C30G
DNA 1: CAATCTGAATTCCGGTCTCCC
DNA 2: TGGTGGCTACGACGGGATT
B17: GUUAGCC (DNA:RNA)
RNA: B1 RNA with U25G, C26U, C27U, U28A, G31C
DNA 1: CAATCTGAATTCCGGTCTCCC
DNA 2: TGGTGGCTACGACGGGATT
B18: ACUGUUG (DNA:RNA)
RNA: B1 RNA with U25A, C27U, U28G, G29U, C30U
DNA 1: CAATCTGAATTCCGGTCTCCC
DNA 2: TGGTGGCTACGACGGGATT
B19: UACUUAA (DNA:RNA)
RNA: B1 RNA with C26A, G29U, C30A, G31A
DNA 1: CAATCTGAATTCCGGTCTCCC
DNA 2: TGGTGGCTACGACGGGATT
B20: CGAUAGC (DNA:RNA)
RNA: B2 RNA with G25C, C28U, C29A, A30G, U31C
DNA 1: CAATCTGAATTCCGGTCTCCC
DNA 2: TGGTGGCTACGACGGGATT
B21: GGUACUC (DNA:RNA)
RNA: B2 RNA with A27U, C28A, A30U, U31C
DNA 1: CAATCTGAATTCCGGTCTCCC
DNA 2: TGGTGGCTACGACGGGATT
B22: CGUUCAA (DNA:RNA)
RNA: B2 RNA with G25C, A27U, C28U, U31A
DNA 1: CAATCTGAATTCCGGTCTCCC
DNA 2: TGGTGGCTACGACGGGATT
B23: UAGGGAA (DNA:RNA)
RNA: B1 RNA with C26A, C27G, U28G, C30A, G31A
DNA 1: CAATCTGAATTCCGGTCTCCC
DNA 2: TGGTGGCTACGACGGGATT
B24: CAUUUUU (DNA:RNA)
RNA: B2 RNA with G25C, G26A, A27U, C28U, C29U, A30U
DNA 1: CAATCTGAATTCCGGTCTCCC
DNA 2: TGGTGGCTACGACGGGATT
B25: GCUAAAG (DNA:RNA)
RNA: B2 RNA with G26C, A27U, C28A, C29A, U31G
DNA 1: CAATCTGAATTCCGGTCTCCC
DNA 2: TGGTGGCTACGACGGGATT
B26: UGCCGCU (DNA:RNA)
RNA: B1 RNA with C26G, U28C, G31U
DNA 1: CAATCTGAATTCCGGTCTCCC
DNA 2: TGGTGGCTACGACGGGATT
B27: UACCUAU (DNA:RNA)
RNA: B2 RNA with G25U, G26A, A27C, C29U
DNA 1: CAATCTGAATTCCGGTCTCCC
DNA 2: TGGTGGCTACGACGGGATT
B28: GGAUGAG (DNA:RNA)
RNA: B2 RNA with C28U, C29G, U31G
DNA 1: CAATCTGAATTCCGGTCTCCC
DNA 2: TGGTGGCTACGACGGGATT
B29: GAAAAGU (DNA:RNA)
RNA: B2 RNA with G26A, C28A, C29A, A30G
DNA 1: CAATCTGAATTCCGGTCTCCC
DNA 2: TGGTGGCTACGACGGGATT
B30: CUAGGCC (DNA:RNA)
RNA: B1 RNA with U25C, C26U, C27A, U28G, G31C
DNA 1: CAATCTGAATTCCGGTCTCCC
DNA 2: TGGTGGCTACGACGGGATT
B31: CUAAGCG (DNA:RNA)
RNA: B1 RNA with U25C, C26U, C27A, U28A
DNA 1: CAATCTGAATTCCGGTCTCCC
DNA 2: TGGTGGCTACGACGGGATT

target: T1, RBFOX1 RRM RbFoxmut (Fox-RRM*) (Homo sapiens, UniProt Q9NWB1 109-208, R118D;E147R;N151S;E152T); assay: EMSA; HiTS-Eq, 1 nM pool, 10 min; buffer printed only for the single-RNA assays: 10 mM Tris pH 7.5, 150 mM NaCl, 3.4 mM EDTA, 0.001% NP-40, 30 C; settings: tags: His6 N-terminal (pET28a); label: 5' 32P
T1 sequence: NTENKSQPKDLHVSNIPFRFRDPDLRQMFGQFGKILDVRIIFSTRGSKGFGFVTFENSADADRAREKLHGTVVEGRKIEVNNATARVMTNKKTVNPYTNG
Method in brief: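 Purified wild-type or mutant RbFox RRM at increasing concentrations was equilibrated with 1 nM of 5′-radiolabelled RNA carrying 7 randomized nucleotides for 10 min in 50 µL. Unbound RNA was separated by 8% native PAGE and sequenced. Relative association constants came from read-count changes of each RNA species compared with the control reaction, normalised to the cognate motif.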

| Binder | binding signal |
| --- | --- |
| B1 | 0.115 KA relative to UGCAUGU |
| B2 | 0.0501 KA relative to UGCAUGU |
| B3 | 0.0517 KA relative to UGCAUGU |
| B4 | 0.0947 KA relative to UGCAUGU |
| B5 | 0.107 KA relative to UGCAUGU |
| B6 | 0.123 KA relative to UGCAUGU |
| B7 | 0.115 KA relative to UGCAUGU |
| B8 | 0.206 KA relative to UGCAUGU |
| B9 | 0.146 KA relative to UGCAUGU |
| B10 | 0.109 KA relative to UGCAUGU |
| B11 | 0.126 KA relative to UGCAUGU |
| B12 | 0.143 KA relative to UGCAUGU |
| B13 | 0.0628 KA relative to UGCAUGU |
| B14 | 0.0694 KA relative to UGCAUGU |
| B15 | 0.0786 KA relative to UGCAUGU |
| B16 | 0.0739 KA relative to UGCAUGU |

| Binder | binding signal |
| --- | --- |
| B17 | 0.124 KA relative to UGCAUGU |
| B18 | 0.149 KA relative to UGCAUGU |
| B19 | 0.117 KA relative to UGCAUGU |
| B20 | 0.0905 KA relative to UGCAUGU |
| B21 | 0.0687 KA relative to UGCAUGU |
| B22 | 0.0571 KA relative to UGCAUGU |
| B23 | 0.103 KA relative to UGCAUGU |
| B24 | 0.1 KA relative to UGCAUGU |
| B25 | 0.0953 KA relative to UGCAUGU |
| B26 | 0.0839 KA relative to UGCAUGU |
| B27 | 0.0744 KA relative to UGCAUGU |
| B28 | 0.225 KA relative to UGCAUGU |
| B29 | 0.0892 KA relative to UGCAUGU |
| B30 | 0.158 KA relative to UGCAUGU |
| B31 | 0.111 KA relative to UGCAUGU |
